Test results published in PubChem BioAssay AID1845212 (Molecular Pharmacology Branch, DTP, NCI, 2023).
A number of entries come with more than one value. This list holds those alone. There may be further records. Values given together repeat one measurement in other runs, samples, wells, individuals or studies. Signs of the kind (2×) stand for listed records that agree. Dates in brackets are months of testing. One block for each compound: values may come before it.

Tested on: NCI-H719 tumor spheroids, viability
Assay: Anticancer human tumor NCI-H719 cell line growth inhibition;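 further: spheroids exposed to compounds for seven days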;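 on viability, T/C: percent viability relative to DMSO vehicle control as 100%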
Conditions: spheroids with HUVEC and MSC; for viability, T/C: stronger effect = lower value
Source text: Multicellular complex tumor spheroid response to DNA repair inhibitors in combination with DNA-damaging drugs
This study explores the anticancer activities of DNA-damaging drugs and inhibitors of DNA damage repair, both as single agents and in combinations. Complex tumor spheroids comprised of malignant cells, endothelial cells and mesenchymal stem cells served as an in vitro model for human solid tumors. This model system incorporates physiologically relevant features and patient-derived or established malignant cell lines with clinically relevant genetic alterations from many tumor types. Twenty-six patient-derived or established malignant cell lines were evaluated representing sarcoma, melanoma, small cell lung cancer (SCLC), non-small cell lung cancer (NSCLC), as well as bladder, ovarian and pancreatic cancers. The concentration ranges selected for each drug and investigational agent were based upon clinically achievable concentrations if the clinical Cmax of the agent was known.
Compounds. The drugs and compounds olaparib (NSC753686), talazoparib (NSC767125), berzosertib (NSC777718), elimusertib (NSC800525), nedisertib (NSC802822), VX-984 (NSC792969), AZD-1390 (NSC803789), temozolomide (NSC362856), topotecan (NSC609699), trabectedin (NSC813783), staurosporine (NSC755774), and gemcitabine (NSC613327) were obtained from the National Cancer Institute (NCI) Developmental Therapeutics Program Chemical Repository. The FDA-approved anticancer drug set is available from the Developmental Therapeutics Program at https://dtp.cancer.gov/organization/dscb/obtaining/available_plates.htm. […] The stock solutions were prepared in dimethyl sulfoxide (DMSO, Sigma-Aldrich, St. Louis, MO, cat. D2650) at 400-fold the tested concentration and stored at -70 degrees C. Prior to their use, the stock solutions were diluted in fresh medium and the final DMSO concentration in the assay was 0.25% (v/v). All drugs and investigational agents were tested over a range starting from a high concentration at or near the clinical Cmax and decreasing in half-log increments. If the clinical Cmax for an agent had not been determined, the highest concentration tested was 10 microM.
Cell Lines. The patient-derived cancer cell (PDC) lines: 156681-154-R-J1-PDC, 283228-195-R-J1-PDC, 287954-098-R-J1-PDC, 292921-168-R-J2-PDC, 349418-098-R-PDC, 425362-245-T-J1-PDC, 556581-035-R-J1-PDC, and BL0293-F563-PDC were received from the NCI Patient-Derived Models Repository (PDMR, https://pdmr.cancer.gov). The established cell lines HS-SY-2 (RRID:CVCL_8719), MPNST, and SYO-1 (RRID:CVCL_7146) were obtained from the Sloan Kettering Institute. The alveolar soft parts sarcoma cell line ASPS-1 (RRID:CVCL_S738) was established at the NCI and grown from internal seed stocks. The following established cell lines were purchased from the American Type Culture Collection (ATCC, Manassas, VA): G-401 (ATCC, cat. CRL-1441, RRID:CVCL_0270), SW982 (ATCC, cat. HTB-93, RRID:CVCL_1734), VA-ES-BJ (ATCC, cat. CRL-2138, RRID:CVCL_1785), NCI-H719 (ATCC, cat. CRL-5837, RRID:CVCL_1582), NCI-H196 (ATCC, cat. CRL-5823, RRID:CVCL_1509), NCI-H841 (ATCC, cat. CRL-5845, RRID:CVCL_1595), NCI-H1618 (ATCC, cat. CRL-5879, RRID:CVCL_1480), NCI-H1876 (ATCC, cat. CRL-5902, RRID:CVCL_1503), DMS 114 (ATCC, cat. CRL-2066; RRID:CVCL_1174), NCI-H211 (ATCC, cat. CRL-5824; RRID:CVCL_1529), and SW 1271 (ATCC, cat. CRL-2177, RRID:CVCL_1716). The small cell lung cancer cell line COR-L88 was purchased from Sigma-Aldrich (cat. 92031917-1VL, RRID:CVCL_1141). The non-small cell lung cancer cell lines NCI-H226 (RRID:CVCL_1544) and NCI-H322M (RRID:CVCL_1557) were established at the NCI and grown from internal seed stocks. Pooled donor human umbilical vein endothelial cells (HUVEC, Lonza, cat. CC-2519) and human mesenchymal stem cells (hMSC, Lonza, cat. PT-2501) were purchased from Lonza (Walkersville, MD).
Cell Culture. All cells were maintained in an incubator at 37 degrees C and 5% CO2 with 95% humidity. […]

SMILES: CNCc1ccc(-c2cc(-c3nc(-c4ccc(S(=O)(=O)C(C)C)cc4)cnc3N)on2)cc1
viability, T/C (compound alone 3 µM): 26.3%, 0.2% [2019-11] and 1.38% [2019-12]

IC50 (compound alone, run of 11/07/2019): < 1 µM, > 100 µM, 9.38 µM
SMILES: Cn1nnc2c(C(N)=O)ncn2c1=O
viability, T/C (compound alone 1 µM): 73.5, 69, 48.1, 93.3, 94.7, 91.5, 81.9, 96.9, 86.1, 101%
viability, T/C (compound alone 3.16 µM): 102 (2×), 100, 60.6, 96.2, 98.3, 97.9, 99.6, 103, 99%
viability, T/C (compound alone 10 µM): 94.5, 106 (2×), 101, 96.7, 104, 96.6, 47.5, 103, 97.9%
viability, T/C (compound alone 31.6 µM): 57.9, 83.1, 94.9, 107, 101 (2×), 99.8, 5.75, 110, 106%
viability, T/C (compound alone 100 µM): 68, 88.1, 64.3, 92.9, 92.4, 87.1, 5.41, 90.4, 87.5, 97.3%

SMILES: COc1cc2c(cc1O)CCNC21CSC2c3c(OC(C)=O)c(C)c4c(c3C(COC1=O)N1C(O)C3Cc5cc(C)c(OC)c(O)c5C(C21)N3C)OCO4 (centres undefined)
viability, T/C (compound 30 pM): 89.2, 74.8, 99.7, 91.7, 72.3, 90.5, 70.9, 93.8, 92.1, 94%

SMILES: O=C(c1cc(Cc2n[nH]c(=O)c3ccccc23)ccc1F)N1CCN(C(=O)C2CC2)CC1
viability, T/C (compound alone 30 µM): 48.6%, 6.53% [2019-11] and 12.1% [2019-12]
